Reference: the supplement of paper PMC11417369
± gives the standard deviation of the averaged measurements. The list shows a part of the results.

What follows are sequences tested on PfAP2-EXP AP2 domain (GST-tagged) (assay: gcPBM binding intensity (ln(normalized median fluorescence intensity)); higher = stronger DNA binding).
Method in brief: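 Alexa488 anti-GST antibody, scanned at 488 nm, detected GST-tagged P. falciparum DNA-binding domains that had been expressed in E. coli and incubated for 1 h on an Agilent 4 × 180k array. The array carried primer-extended double-stranded 36-bp intergenic genomic probes and negative controls. Binding intensity is the highest Masliner-normalised natural-log median intensity across replicate spots of either orientation of each probe.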

| Sequence | gcPBM binding intensity (ln) |
| --- | --- |
| TATATCTGTATCATTACACACATGTATACTTATTTG [CACACA_site6134] | 8.74 ± 0.43 |
| TATTTTTTAAGTGAACATTTGTTATTATATTCTTAT [GTGCAC_negctrl_site172] | 8.48 ± 0.41 |
| CTATATATTTTTCATTGTACACAAATTAAAGAAAAA [XGTACX_site8385] | 8.48 ± 0.18 |
| TTTTTTTATAAATTCACACAAAATATAATATTAAAA [CACACA_site4766] | 8.3 ± 0.42 |
| AATGTCATCATATTCATATATATTTATTTCTTTTTG [GTGCAC_negctrl_site500] | 8.53 ± 0.53 |
| ATGATGGAATATTCTACACACAATTAATAAACAAAC [CACACA_site1045] | 9.05 ± 0.79 |
| ATATAATCCTTTCAAACACACAAAATATAATTAATA [CACACA_site1829] | 8.54 ± 0.48 |
| ATAAATAATAAGGTTACAACAAACACACAAAGGAAT [XGTACX_negctrl_site611] | 9.2 ± 0.45 |
| GGTTATAACCCACATGCACACGTAAATAAATATTAT [CACACA_site5992] | 9.04 ± 0.47 |
| TGTCCAATTTATTGTGCACACCTCAAAAGTGGGTAA [CACACA_site3826] | 8.84 ± 0.18 |
| TAAAAAAAAAAGTATACACACTTCTTAATGTCAACA [CACACA_site4818] | 8.13 ± 0.49 |
| CATATATATATATGTACACACATTAATAAAAAAAAA [CACACA_site3230] | 8.53 ± 0.5 |
| GTTTAACTGTTTTATACACACAATGTATACAATAAA [CACACA_site2959] | 8.73 ± 0.42 |
| AATCTGATCTTTTAAAGTACACAAAAAAAAAAAAAA [XGTACX_site115] | 8.24 ± 0.56 |
| AGGTTATAAATAAATACACACATACAAAAATATGAC [CACACA_site4773] | 8.74 ± 0.34 |
| AAAAAAAAAAAAAAAAGTACGTATCAAAGCATCAAA [XGTACX_site880] | 8.79 ± 0.43 |
| AATGAACACCTAAAATGTACGTACAAATATATTTTA [XGTACX_site7067] | 8.83 ± 0.49 |
| TTTGAGTGCACATACACACAGACATACATTTAAATA [CACACA_site3403] | 9.52 ± 0.64 |
| AATGAATAAATAAACACACACACATATATAAATATG [CACACA_site6160] | 8.72 ± 0.51 |
| AAAACAAACAGACACACACACATATATATATATATA [CACACA_site3655] | 10.3 ± 0.21 |
| ATGTTTAATTTTTTTTTGTCCCTATAGAAGTGTCAA [CACACA_negctrl_site1103] | 8.56 ± 0.47 |
| TTTAAAATTTTTTTTTTTTTTTTTTTTTTTTTTTAT [TGCATGCA_negctrl_site213] | 7.82 ± 0.34 |

| Sequence | gcPBM binding intensity (ln) |
| --- | --- |
| ATATAAATATGTTCTGCACACAAATAAGTGTTTGAA [CACACA_site9291] | 8.44 ± 0.29 |
| ATAACCTAATAATACACACACATGAATATATAGAAT [CACACA_site963] | 8.69 ± 0.42 |
| TAATATATATTATTATGTACATATATTGATTCCTTG [XGTACX_site6830] | 8.93 ± 0.38 |
| TATTTATTAATATGTACACACATCAACCATATTAAC [CACACA_site7001] | 8.77 ± 0.33 |
| TTCTTATATATATACACACACAAAATATCTACAATG [CACACA_site736] | 8.62 ± 0.51 |
| CCAAAATACATTAAACGTACATGTCCTAATAAGATA [XGTACX_site21] | 8.81 ± 0.57 |
| TTGTTTTTATAAATATTATTACAATGAAAAAAAAAA [TGCATGCA_negctrl_site185] | 8.38 ± 0.59 |
| TGTTTAATCACATGTTTGCACTTTCCTTTTGTAAAT [GTGCAC_site9893] | 9.06 ± 0.39 |
| AATTATTCTATATATTGTACATGTTTGTTTTTTTTT [XGTACX_site3130] | 8.82 ± 0.39 |
| ATATATAAATATATATGTACACACATATACATGTTG [XGTACX_site6653] | 8.4 ± 0.26 |
| TGATTCTGTCATGGTGCACACCAGAACCATTATAAA [CACACA_site1965] | 9.29 ± 0.61 |
| TCTTAAAATCGGAAATGAAATAAAGTTTACAATATG [TGCATGCA_negctrl_site553] | 8.4 ± 0.38 |
| TTTTCATTTATGTATATATTTATTTTGATTTAATGT [GTGCAC_negctrl_site607] | 8.31 ± 0.3 |
| AAAATTATAAATCTTGCACACAAAAAAAATAATAAA [CACACA_site8771] | 8.37 ± 0.38 |
| TAAATATATTCAATCACACACATTCGTTTTTTTTTT [CACACA_site234] | 8.54 ± 0.45 |
| AATTATTTTATGTGAGGTACACCACACATGAAGGGG [XGTACX_site8450] | 9.36 ± 0.44 |
| TATTGTTATGTCGTTATTAACTTTCTTTAATTAATT [CACACA_negctrl_site174] | 8.95 ± 0.29 |
| AAATATTCATAGTATACACACATTTATATATAATCA [CACACA_site771] | 8.46 ± 0.4 |
| TGAAAGTTCAATAATTGTACATGTGGAAATTCATAC [XGTACX_site1378] | 8.94 ± 0.28 |
| ATATTTCGTCTAAAAAGTACACAACAATAAAAAGTA [XGTACX_site6668] | 8.96 ± 0.35 |
| AAAAAACACAGACACACACACATATACATACATACA [CACACA_site2666] | 9 ± 0.27 |
| TTAGGTTTATACACTACACACATTATTCATAAAAAA [CACACA_site871] | 8.43 ± 0.37 |

| Sequence | gcPBM binding intensity (ln) |
| --- | --- |
| TTTTTTAAATAATATTGTACAAAAAATGTATAAATA [XGTACX_site3010] | 8.49 ± 0.37 |
| AAGTGTATACAGAAGAGTACAAACAATTTTTTTCTT [XGTACX_site7387] | 8.55 ± 0.54 |
| TATATATATTTAAGGTGTACATAAATAACAAAATAT [XGTACX_site2641] | 8.86 ± 0.4 |
| ATTTTTTTTTCTTTCGCACACGTGAAAGAATTTCTA [CACACA_site2052] | 8.59 ± 0.3 |
| TTAAATTAAAACAAATGTACAAAGTGCATATTTTTT [XGTACX_site8143] | 8.29 ± 0.31 |
| ATAATTTAATACTAGTGTACAGAAAAAAAAAAAAAA [XGTACX_site6756] | 8.55 ± 0.42 |
| ATATTATATTATATAACACACATTTTTCATAACACT [CACACA_site407] | 8.58 ± 0.45 |
| TGTTTAAATTTTTTGTTTTTTTTTTTATAAAGCAAA [TGCATGCA_negctrl_site313] | 8.13 ± 0.3 |
| ACATATATATATAAATATATATATATATAAATATAT [CACACA_negctrl_site895] | 8.355 ± 0.007 |
| GTTGAACATAGATGCACACACATAAAATAAAAAAAA [CACACA_site5353] | 8.67 ± 0.58 |
| TTGTTGTTATTTAAAACACACATCAATCATCTTAAC [CACACA_site1142] | 8.3 ± 0.3 |
| TATATTTTTTTAAAAAGTACTTTGTATATATATATA [XGTACX_site1300] | 9.91 ± 0.15 |
| TGAAGGTCAGTTCACAGTACCCAGTAACTCTACGGA [XGTACX_site2554] | 8.4 ± 0.47 |
| ATAAAAAAATAAATTAGTACATATATATATATATAT [XGTACX_site6971] | 10.1 ± 0.35 |
| TTACGCATACTAATTACACACAAATAGATGAATATA [CACACA_site1338] | 8.47 ± 0.38 |
| GTTGCGTATATATACACACATACATATATATATATA [CACACA_site1607] | 10.1 ± 0.23 |
| TTATATAATAAAAATTGTACATATTATATATATATT [XGTACX_site3427] | 8.19 ± 0.26 |
| TATGAAAGAAATAGTACACACATAAACATTTGTAAA [CACACA_site2783] | 8.44 ± 0.28 |
| TAATATTCAATTATACGTACACATATATATATATAT [XGTACX_site4245] | 10.2 ± 0.2 |
| TCATATATCATAACAGTGCAAAAAAAAAAAAATTAT | 8.8 ± 0.41 |
| AGAAAATATACAAAACGTACTTATATATTATATCTA [XGTACX_site3104] | 8.2 ± 0.3 |
| GTTTGATTAAACTTGACACACATATATATAAATATA [CACACA_site1784] | 8.43 ± 0.54 |

| Sequence | gcPBM binding intensity (ln) |
| --- | --- |
| AAAAAAAAAAAAGAAACACACATATATATATATATA [CACACA_site140] | 10.1 ± 0.6 |
| GTTAGAGGGAAAAAGAGTACATATATGTGGATAATT [XGTACX_site2064] | 9 ± 0.44 |
| TATTTATGTATATGCTGTACGCATTTGTGAAACATA [XGTACX_site4688] | 8.72 ± 0.38 |
| AACCAATTAGAAGGATCCAGAACTTATTTGTTTTTA [CACACA_negctrl_site1744] | 8.18 ± 0.54 |
| AGTTTGTCAATCAACACACACCTATTTATTATATAT [CACACA_site6030] | 8.52 ± 0.29 |
| TACAAGCCCAATTCAAGTACATATATATATATATAT [XGTACX_site5569] | 10.2 ± 0.44 |
| ATTCATTCATATGTTACACACACACGCCCACATAAA [CACACA_site7513] | 9 ± 0.37 |
| TAAAAAAAGGTTATTGGTACACACATATGTATATAT [XGTACX_site1029] | 8.49 ± 0.3 |
| TTATATATATATATATATATTTACATAATAATATGT [GTGCAC_negctrl_site388] | 8.48 ± 0.16 |
| TAAACTTTCCAGTGTTGTACATAATAATTATTATAT [XGTACX_site8896] | 8.51 ± 0.35 |
| AAAGATATGAAATATACACACTTCTTTGGTATTATT [CACACA_site6352] | 8.2 ± 0.48 |
| AAATATTTATAGGTTTGTACTTATAAATAAAAAAAA [XGTACX_site7360] | 8.43 ± 0.24 |
| TTTATAAAAATGAACACACACATATATATATATATA [CACACA_site3493] | 10.4 ± 0.3 |
| AATATGAAAAGATGAACAACAAAATGGAGAACAATA [GTGCAC_negctrl_site612] | 9.12 ± 0.57 |
| ATACAAAATTTTTAAGAACACACAAAAATGTACTAT [CACACA_site8817] | 8.64 ± 0.38 |
| TGAGGTAACTAAATATGTACGTAACGAAGATACATA [XGTACX_site8231] | 8.78 ± 0.35 |
| GAACGCCATTCACATAAAGGGATACATAAATAAATA [XGTACX_negctrl_site330] | 8.4 ± 0.42 |
| GCGTTATTAAATAATTCACACACATATATATATATA [CACACA_site8711] | 10 ± 0.38 |
| AAGAAAAACTTTACGTGTACCAAACGTCATGCCAAC [XGTACX_site2575] | 8.55 ± 0.53 |
| TAATTTCTTATGTATTGTACAAATAATGTATGATAT [XGTACX_site270] | 8.68 ± 0.32 |
| TTCTTGTATTTTCATAGTACATATAATGTCGTATTA [XGTACX_site600] | 8.71 ± 0.38 |
| TACTTACACTGTTTTTGTACTTATTTCCCTTTTATT [XGTACX_site2158] | 9.12 ± 0.6 |
